Source: the supplement of paper PMC3334620
Whole data set: some 33,000 sequences, median “E-score (-0.5 to 0.5)” near -0.043, cut for the highest 2% near 0.37. This is one part of the list.

molecular target: T1, Upc2 (UniProt Q12151); assay: PBM E-score (8-mer binding enrichment) (E-score (-0.5 to 0.5)); higher = stronger / more preferred TF binding; most listed sequences are background and not binding sites; conditions: protein concentration: 200 nM; construct: GST-full length
T1 sequence: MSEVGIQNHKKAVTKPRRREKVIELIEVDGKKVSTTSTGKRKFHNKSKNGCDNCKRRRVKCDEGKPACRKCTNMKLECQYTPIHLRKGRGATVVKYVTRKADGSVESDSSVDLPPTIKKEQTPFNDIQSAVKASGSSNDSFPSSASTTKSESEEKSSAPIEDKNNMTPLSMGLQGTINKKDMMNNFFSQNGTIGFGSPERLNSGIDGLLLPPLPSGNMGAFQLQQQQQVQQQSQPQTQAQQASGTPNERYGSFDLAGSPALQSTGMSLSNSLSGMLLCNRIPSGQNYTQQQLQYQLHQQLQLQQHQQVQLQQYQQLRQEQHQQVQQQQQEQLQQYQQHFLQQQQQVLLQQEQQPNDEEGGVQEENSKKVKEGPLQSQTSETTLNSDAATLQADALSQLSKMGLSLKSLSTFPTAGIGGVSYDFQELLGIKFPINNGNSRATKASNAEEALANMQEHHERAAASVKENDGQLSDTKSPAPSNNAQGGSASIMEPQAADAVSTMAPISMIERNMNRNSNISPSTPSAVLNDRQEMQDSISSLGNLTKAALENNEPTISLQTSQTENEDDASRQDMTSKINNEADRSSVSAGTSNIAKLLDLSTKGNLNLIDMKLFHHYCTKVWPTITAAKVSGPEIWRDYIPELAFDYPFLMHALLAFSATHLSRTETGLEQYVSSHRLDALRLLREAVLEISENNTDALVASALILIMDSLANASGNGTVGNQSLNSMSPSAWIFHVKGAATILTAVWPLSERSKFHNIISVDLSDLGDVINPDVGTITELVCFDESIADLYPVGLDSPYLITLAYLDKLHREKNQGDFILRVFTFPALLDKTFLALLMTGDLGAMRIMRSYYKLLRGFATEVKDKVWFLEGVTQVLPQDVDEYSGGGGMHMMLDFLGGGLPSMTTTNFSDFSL
Outline: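 Full-length yeast transcription factors or their DNA-binding domains, GST-tagged and expressed with PURExpress, were applied at about 100-200 nM to universal all-10-mer Agilent arrays. These arrays had been made double-stranded by primer extension on fresh or once-stripped slides. Detection used fluorescent anti-GST, normalisation used masliner, and E-scores for ungapped eight-base words pooled with reverse complements came from the Universal PBM Analysis Suite.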

Sequence	PBM E-score
AACCCTCG	0.00662
GTGGTTTA	-0.0991
CAGAGCGA	0.0014
TTATTCAA	0.157
AGGGGCGA	-0.253
CGCCGCGC	-0.164
TATCGCAA	-0.0957
CAGAAGCC	-0.188
GAGTGAAC	0.115
GGAGACAC	-0.117
CACTATAC	0.301
AATGTGTA	0.0776
AGGGACGG	-0.161
ATACCTGC	0.0206
ATCGTAAT	0.287
CCATTCAA	0.0219
AGCTAATG	-0.0484
CGAGACAA	-0.00303
ACTTAACA	-0.0773
AGCTCACG	-0.078
ACAAAGCA	-0.0865
CGCTACAC	0.0581
ATGGTTGC	-0.0503
ATGACGTA	0.123
CAAGAACG	0.296

Sequence	PBM E-score
ATGTTTTC	0.138
ATCAAATA	0.0247
GATGTGCA	-0.038
GCAGCGAA	0.1
ATTCTAGG	0.0288
AGGAACAG	-0.302
CTACAGAC	0.0491
ATCCTAAT	0.0007
ACCCAGCA	-0.0979
ATCATCTA	-0.0847
CCTTGTTC	0.021
CACCCAGA	-0.246
CATTGGCG	-0.156
ATAGTGAC	0.136
AATGTCAG	-0.178
CAAAGATC	0.067
ACTCTCTA	-0.108
GCCGACGC	-0.132
CCTAGGCC	-0.378
CAAAGGGG	-0.22
AGATTCAG	0.013
AGCCAGCG	-0.0686
CGGAGTGA	-0.102
ACTCTCCT	-0.097
ACAGCATA	0.0968

Sequence	PBM E-score
AGTTTACC	0.0436
ACCGGCAA	0.0667
GACGACAC	-0.079
AACAGCCG	-0.0317
CAGATGAA	-0.046
GCAGCGCA	-0.114
CTTTATCA	-0.102
ATACAAGG	-0.116
ATGCATCA	0.0481
AAACGCCC	0.249
CACAACTC	0.157
CAAACAAG	-0.055
GCATCTCA	-0.0439
CCCCCTTC	-0.333
CAACATTC	-0.112
TGCCACAA	-0.216
CGTTACGC	0.282
CTAAAAGC	-0.0131
AAATGTTC	0.04
CTTTGAGA	-0.0679
ATTCCGCA	-0.126
AACCCATG	-0.154
AAGAGCAT	-0.0379
ACATGGTG	-3e-05
ACGGGACC	0.0545

Sequence	PBM E-score
CTCGAGGA	0.00787
ATGGCAAG	-0.133
AGTATCAG	-0.235
AGCGCTTC	-0.0672
CCCGAACG	0.293
CAAAATGG	-0.19
TAACGGAA	0.175
CACTTGGG	-0.342
ACCCGGGT	-0.118
AAGCTCAC	-0.0662
AGATGGCT	-0.188
CCCCTCGG	0.257
ACCACGAC	-0.0339
GCTTGCGA	0.131
ATTCATTG	-0.0641
CTGATCCC	-0.111
CTACATAG	-0.201
GACCCGCC	0.0762
ATAAGTGA	-0.0169
AGCTGCCC	0.0483
AGCGTAGA	-0.0587
AATCAGGA	-0.132
GCCAATAC	0.0787
ATCACATG	-0.0786
ACAACGGA	-0.14

Sequence	PBM E-score
ATACGAGG	0.487
AGCCGCGA	-0.0696
GGACGATA	-0.181
CGTCGCGC	-0.00532
ACTCGCCG	0.159
CATCCCGC	-0.114
GTACACCA	0.123
CAGACTCA	-0.0951
GGACAGAA	0.0328
GATTCCGA	-0.0286
AAACTAGT	0.0227
ATGAGCGC	0.0303
AAAGATTA	0.0277
CGCTCTTC	0.00916
AACTCGAA	-0.0619
AGCTCATC	-0.103
GACGGGCA	-0.0772
CGCAGTAC	0.101
TCGCCTAA	0.132
CCTAACAG	-0.0517
ACGTTATG	0.128
CATGGCTA	-0.0717
GCTTATTA	0.0294
ACCGTGAG	-0.137
CTAGATCA	-0.0293

Sequence	PBM E-score
TTAAGGAA	-0.0585
ACACGAAG	0.211
AGGAAAGG	-0.308
CGTTCAAC	0.382
CTTGCTGC	-0.249
GATGCAAC	-0.121
GATCTATA	0.229
ACCTGTCC	-0.104
CTGGCCAC	-0.22
CAAACCCG	0.0894
AGTTAGCC	-0.199
GGAACTGA	-0.0729
ACGGATAG	0.0992
ACGGCCGA	0.113
CAGCGTCG	0.104
ATGTAAGG	-0.101
CCAGAGCC	-0.118
CGCTTCTC	-0.0298
GACTAATA	0.0308
AGAATGCC	-0.122
TAGAAATA	0.0621
AGTGAACA	-0.0568
TGGTCGAA	-0.151
GATTTGTA	-0.159
CGCTTTAG	0.115

Sequence	PBM E-score
GTTGTTGA	-0.0225
GCAGGACC	-0.203
CCACTATA	0.0765
GTTTCCGA	0.176
CCCATTCG	0.0753
GCCGGAGC	-0.108
GAAATGAC	-0.0962
AATTTTGC	0.0129
AAGCCCTG	-0.233
AATATGCG	0.169
CCTATTAG	-0.201
CCCCATAA	-0.161
CAGCATCG	-0.0921
AGGGATTC	-0.139
CGCTGGCA	-0.205
CCATATGC	0.167
CGTCGTAA	0.457
CACAGATC	-0.161
AATGGGTC	-0.193
CCGATCCC	-0.22
GCGCCATA	-0.0194
AGTTTGCA	-0.0759
AAATGCAG	-0.0984
TCTTGCCA	-0.303
TCAGGGAA	-0.0302

Sequence	PBM E-score
CAACTTCC	0.0137
ACCTAGTG	-0.116
AGAGACTA	0.0121
CACAGCTC	-0.171
AAGATTGG	-0.0467
GGCACGAC	-0.0971
AAATTCTG	-0.113
ACCGACGT	0.238
ATCTACTG	-0.0785
GCACGTTA	0.182
CATGTGGG	-0.251
CACAGTGA	-0.0917
AACGGTTC	0.166
AAAGACAA	-0.117
ACCTGTTC	0.115
CCGGCAAA	-0.0642
AGCACAAT	-0.0573
ACACCATC	-0.205
GTAATAAA	0.199
GTCAGTTA	-0.206
CATGTTTA	0.118
CCCAGGCG	-0.257
CTCTTCTC	-0.306
CATTCACA	-0.114
ACTTGCTC	-0.149

Sequence	PBM E-score
ACCATAAT	0.0536
TATGAAGA	-0.105
GCATTTTA	0.0992
AAGCAATT	-0.0358
AGATGTGA	0.0909
CATCGACC	-0.268
GAATGATA	0.0972
AAAACTCA	-0.0631
ACGGCACT	0.0539
CGTGTGAG	0.0442
GCTGTTAA	0.0878
CAGTGACG	-0.0661
ACGCGTTG	0.143
CCGTCCTA	-0.255
ACAGCTAT	-0.0224
GTACCAAC	0.0659
ATCGAAAC	0.108
GCCTAAAA	-0.113
CCTGCGCA	-0.215
